Publication PMC4336329 (PLoS ONE, 2015)
Hit rate of the full screen: of about 310,000 compounds, about 2,200 (0.71%) showed an effect of 50% or more. The effect is printed as a negative number. The list shows a part of the results.

Target: human ether-à-go-go-related gene (hERG) potassium channel (human, UniProt Q12809)
Assay: primary screen, population patch clamp on CHO cells stably expressing hERG

Sequence of human ether-à-go-go-related gene (hERG) potassium channel (Q12809 whole entry, looked up): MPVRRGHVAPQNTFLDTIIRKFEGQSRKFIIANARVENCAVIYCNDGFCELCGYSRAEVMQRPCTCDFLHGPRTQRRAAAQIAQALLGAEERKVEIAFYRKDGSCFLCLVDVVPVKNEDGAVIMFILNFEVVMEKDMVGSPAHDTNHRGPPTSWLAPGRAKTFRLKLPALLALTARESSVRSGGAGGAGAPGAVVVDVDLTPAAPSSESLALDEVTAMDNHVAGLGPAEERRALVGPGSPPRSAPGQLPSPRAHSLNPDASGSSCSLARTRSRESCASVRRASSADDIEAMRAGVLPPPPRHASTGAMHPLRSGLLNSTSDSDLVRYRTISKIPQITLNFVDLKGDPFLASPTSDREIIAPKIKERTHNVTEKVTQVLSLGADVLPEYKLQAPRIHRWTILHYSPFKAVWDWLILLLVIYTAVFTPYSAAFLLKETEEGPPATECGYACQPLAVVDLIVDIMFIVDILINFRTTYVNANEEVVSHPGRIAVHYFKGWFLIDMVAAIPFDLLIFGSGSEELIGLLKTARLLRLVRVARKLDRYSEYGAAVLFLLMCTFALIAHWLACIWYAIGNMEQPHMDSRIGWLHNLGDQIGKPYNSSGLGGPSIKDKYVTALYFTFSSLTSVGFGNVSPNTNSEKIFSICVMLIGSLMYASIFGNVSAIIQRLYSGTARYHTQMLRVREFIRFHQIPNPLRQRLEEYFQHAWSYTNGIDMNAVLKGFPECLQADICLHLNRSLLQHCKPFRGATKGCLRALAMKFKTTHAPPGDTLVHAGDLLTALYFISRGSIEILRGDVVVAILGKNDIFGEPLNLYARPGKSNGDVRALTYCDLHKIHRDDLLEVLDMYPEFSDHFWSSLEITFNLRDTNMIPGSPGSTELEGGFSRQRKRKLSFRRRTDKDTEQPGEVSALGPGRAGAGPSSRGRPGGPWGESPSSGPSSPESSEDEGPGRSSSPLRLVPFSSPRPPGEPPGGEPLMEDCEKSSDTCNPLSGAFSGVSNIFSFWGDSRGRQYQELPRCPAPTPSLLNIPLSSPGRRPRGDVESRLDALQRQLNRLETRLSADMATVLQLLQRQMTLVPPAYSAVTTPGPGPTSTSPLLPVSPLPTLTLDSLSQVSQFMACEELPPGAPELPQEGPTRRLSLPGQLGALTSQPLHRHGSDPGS

Row | SMILES | hERG current change (%, negative = inhibition) at 1uM [%]
1 | Cc1cc(C(=O)Nc2ccc(C#N)cc2)on1 | 13.5
2 | Nn1c(-c2ccccc2)cc(-c2ccccc2)cc1=O | 2.26
3 | CC1=NN(C(=O)c2ccccc2Br)C(O)(c2cccnc2)C1 (centres unmarked) | 12.2
4 | CN(CC(=O)Nc1ccccc1C(=O)NC1CC1)Cc1cccs1 | 0.426
5 | COc1ccc2c(c1)c(CCN1C(=O)c3ccccc3C1=O)cn2C(=O)c1ccco1 | 15.5
6 | CCn1c(=O)c(C(=O)Nc2ncccc2C)c(O)c2ccccc21 | 16.3
7 | C=CCOc1ccc(/C=C/C(=O)OCC(=O)N(C)CC(=O)Nc2ccc(F)cc2)cc1 | 9.85
8 | O=S(=O)(c1ccccc1)N1CCn2c(nc3ccccc32)C1 | 17.5
9 | Cc1cccc(C(=O)NC2CCN(C(=O)Nc3ccccc3C)CC2)c1 | 8.16
10 | Nn1c(SCC(=O)NC2CCCCC2)nnc1C1CC1 | 10.2
11 | CCOc1ccc(C2c3c(oc4cc(C)c(C)cc4c3=O)C(=O)N2CCCN(C)C)cc1OC (centres unmarked) | 4.1
12 | O=S(=O)(NC1CCCC1)c1ccc(-n2cnnn2)cc1 | 14.5
13 | CC1CCCN(C(=O)CN(c2ccccc2)S(=O)(=O)c2ccc(F)cc2)C1 (centres unmarked) | 3.54
14 | Cc1ccc(OCCNC(=O)CCC(=O)N2CCOCC2)cc1 | 13.1
15 | Cc1ccc(-c2nnn(CC(=O)N(c3cnc4ccccc4c3)C(C(=O)NC3CCCC3)c3ccncc3)n2)o1 (centres unmarked) | 13.3
16 | CC(=O)NC(c1ccc(Cl)cc1)c1c(O)ccc2ccc(O)cc12 (centres unmarked) | 13.3
17 | CN(c1ccccc1)S(=O)(=O)c1cccc(C(=O)NCCCN2CCCC2=O)c1 | 4.15
18 | CCOc1ccc(-c2c(C(=O)N/N=C/c3ccsc3)nnn2-c2nonc2N)cc1 | 10.4
19 | Cc1c(Cl)cccc1NC(=S)N(CCN(C)C)C(C)c1ccccn1 (centres unmarked) | 0.0607

Row | SMILES | hERG current change (%, negative = inhibition) at 1uM [%]
20 | Cn1cnnc1SCC(=O)NCCc1ccc(Cl)cc1Cl | 12.5
21 | O=C(NC1=NCCS1)Nc1ccccc1 | 0.274
22 | CC1CCCC(NC(=O)CCn2c(=O)oc3ccccc32)C1C (centres unmarked) | -6.23
23 | Cc1ccc(C(=O)N/C(=C\c2cccs2)C(=O)NCCc2ccccn2)cc1C | 9.59
24 | Cc1cc(C)cc(C(=O)NN2CCN(C)CC2)c1 | 27.1
25 | CC(=O)c1ccc(N/N=C2/CCCNC2=O)cc1 | 10.8
26 | Cc1c(CCC(=O)O)c(=O)oc2c(C)c3occ(-c4ccc(Cl)cc4)c3cc12 | 11.7
27 | O=C(Nc1ccc(NC(=O)c2cccs2)c(Cl)c1)c1ccco1 | -15.6
28 | COC(=O)c1ccc(/C=C/C(=O)c2ccc(OC)c(OC)c2)cc1 | 7.22
29 | COc1cccc(-c2cc(C(=O)Nc3cccnc3Cl)no2)c1 | 17.5
30 | CC(=O)N1[C@H](C)C=C[C@]1(Cc1ccccc1)C(=O)NCCc1c[nH]c2ccccc12 | 3.51
31 | CCOc1cc(/C=N/NC(=O)C(O)(c2ccccc2)c2ccccc2)ccc1OC(=O)c1ccco1 | 5.45
32 | CC(=O)Nc1ccc(NC(=O)C(C)OC(=O)CNC(=O)c2ccc(-c3ccccc3)cc2)cc1 (centres unmarked) | 13.4
33 | Cc1ccc(Cl)cc1NC(=O)c1ccccn1 | 1.33
34 | O=C(CCc1nc2ccccc2s1)OCC(=O)c1ccccc1 | 6.88
35 | COc1ccccc1OCCC(=O)OCC(=O)Nc1ncc(Cl)cc1Cl | 9.13
36 | CC(=O)c1ccc(N2CCN(S(=O)(=O)c3cccc4nsnc34)CC2)cc1 | 19.2
37 | CCS(=O)(=O)N1CCC(NC(=O)C(Cc2ccc(OC)c(OC)c2)NC(C)=O)CC1 (centres unmarked) | 12.6
38 | CC1Cc2ccccc2N1C(=O)C1CCCCN1S(=O)(=O)c1ccccc1 (centres unmarked) | -2.36

Row | SMILES | hERG current change (%, negative = inhibition) at 1uM [%]
39 | Cc1nn(-c2ccccc2C(=O)O)c(=O)c2ccccc12 | -0.599
40 | Cn1c(SCC(=O)Nc2ccc3[nH]c(=O)[nH]c3c2)nnc1-c1ccc(F)cc1 | 11.6
41 | O=C(CSCc1n[nH]c(=O)[nH]1)NCCOc1cccc(Oc2ccccc2)c1 | 11.4
42 | COc1ccc(CNC(=O)c2cc(=O)c3cc(C)cc(C)c3o2)cc1 | 11.4
43 | Cc1cccc(CN2CCN(C(=O)c3ccccc3F)CC2)c1 | 7.67
44 | CC1CC(C)CN(S(=O)(=O)N2CCC(C(=O)NCCc3ccccc3)CC2)C1 (centres unmarked) | 10.5
45 | Cc1ccc(NS(=O)(=O)c2cccc(C(=O)NCC3(N(C)C)CCCCC3)c2)cc1 | -9.54
46 | COc1ccc(C(=O)C2CCCN(Cc3cnc(C)s3)C2)c(OC)c1 (centres unmarked) | 0.445
47 | C=C(C)C1CC=C(C)/C(=N/NC(=O)c2cccs2)C1 (centres unmarked) | 13.8
48 | COC(=O)c1ccc(N=Nc2ccccc2)cc1 | 4.68
49 | CCOc1cc(/C=C2\C(=N)N3N=C(CC)SC3=NC2=O)ccc1OCCOc1ccc(NC(C)=O)cc1 | 12.2
50 | COc1ccc(/C=C/C(=O)c2cc(Br)ccc2O)cc1OC | 9.2
51 | CC(=O)Nc1sc(C)c(C)c1C(=O)OCC(=O)Nc1ccccc1 | 6.49
52 | COCCn1nnnc1C(C(C)C)N1CCCC(C)C1.Cl (centres unmarked) | 11.5
53 | Cc1cc(C)n(CC(O)COc2ccc(C(C)(C)C)cc2)n1 (centres unmarked) | 5.99
54 | COc1ccc(CNC(=O)c2sc3nc4c(c(C(F)(F)F)c3c2N)CCC4)cc1 | 9.64
55 | CCOC(=O)CC(NS(=O)(=O)c1ccc(NC(C)=O)cc1)c1ccc(OCC)cc1 (centres unmarked) | 0.0688
56 | O=C1[C@@H]2C(c3ccccc3Cl)=NO[C@@H]2C(=O)N1Cc1ccccc1 | 12.6
